For 26 compounds, cytotoxicity call and growth inhibition call results are on record in the antibiotic and cytotoxicity screens of Wong et al. (2023).

The subject of one experiment is HSkMC. Briefly: cytotoxicity call (relative viability < 0.9). The conditions noted are these: 10 µM.
The next experiment deals with HepG2. Briefly: cytotoxicity call (relative viability < 0.9). The settings on record: 10 µM.
The next experiment deals with S. aureus RN4220. Briefly: growth inhibition call (relative growth <= 0.2). The conditions noted are these: 50 µM.

The list shows a part of the results.

For the compound `C[C@H](CO)N1C[C@H](C)[C@@H](CN(C)S(=O)(=O)c2ccccc2)Oc2c(NS(C)(=O)=O)cccc2C1=O`, the cytotoxicity call with HSkMC and with HepG2 was “inactive” each time. The growth inhibition call in the experiment on S. aureus RN4220 was “inactive”.

Turning to `OC[C@@H](O)[C@@H](O[C@@H]1O[C@H](CO)[C@@H](O)[C@H](O)[C@H]1O)[C@H](O)[C@@H](O)CO`, the cytotoxicity call in the experiment on HSkMC and in the experiment with HepG2 was “inactive” each time. Also, in the experiment on S. aureus RN4220, the growth inhibition call is “inactive”.

Turning to `C[C@@H]1CN([C@H](C)CO)C(=O)c2cc(C#Cc3ccccc3F)cnc2O[C@H]1CN(C)C(=O)c1ccc2c(c1)OCO2`, the cytotoxicity call in the experiment with HSkMC and with HepG2 was “inactive” in each case. Also, the growth inhibition call in the experiment on S. aureus RN4220 is “inactive”.

For `C[C@@H]1CCCCO[C@@H](CN(C)Cc2ccc3c(c2)OCO3)[C@@H](C)CN([C@H](C)CO)C(=O)c2cc(NS(=O)(=O)c3ccc(Cl)cc3)ccc2O1`, the cytotoxicity call with HSkMC is “inactive”. The cytotoxicity call in the experiment on HepG2 is “active”. Besides, the growth inhibition call in the experiment with S. aureus RN4220 was “inactive”.

`C[C@@H]1CCCCO[C@H](CN(C)C(=O)NC2CCCCC2)[C@H](C)CN([C@H](C)CO)C(=O)c2cc(NC(=O)CCC(F)(F)F)ccc2O1`: the cytotoxicity call with HSkMC and in the experiment with HepG2 was “inactive” in each case. Besides, in the experiment with S. aureus RN4220, the growth inhibition call is “inactive”.

Consider `Cc1noc(C)c1S(=O)(=O)N(C)C[C@H]1Oc2ccc(NS(=O)(=O)c3cn(C)cn3)cc2CC(=O)N([C@H](C)CO)C[C@@H]1C`, for which the cytotoxicity call in the experiment on HSkMC and in the experiment with HepG2 was “inactive” in each case. Also, in the experiment with S. aureus RN4220, the growth inhibition call was “inactive”.

As for `COc1ccc([Si](C)(C)[C@H]2[C@H](CC(=O)N3CCC[C@H]3CO)O[C@@]3(C(=O)N(Cc4cccc(N5C(=O)c6cccc7cccc5c67)c4)c4ccccc43)[C@@H]2C)cc1`, the cytotoxicity call in the experiment on HSkMC and with HepG2 was “inactive” in each case. Also, the growth inhibition call with S. aureus RN4220 was “inactive”.

Turning to `COCCOC(=O)N1C(=O)[C@@]2(c3cc(C#Cc4ccc(OC)cc4)ccc31)[C@H](C(=O)NC[C@H](O)c1ccccc1)[C@H]1C(=O)O[C@H](c3ccccc3)[C@H](c3ccccc3)N1[C@@H]2c1ccc(O)cc1`, the cytotoxicity call in the experiment on HSkMC and in the experiment with HepG2 was “inactive” in each case. Also, in the experiment on S. aureus RN4220, the growth inhibition call was “inactive”.

As for `CC(C)CNC(=O)C[C@H]1NCCNC1=O`, the cytotoxicity call with HSkMC and with HepG2 was “inactive” each time. Besides, in the experiment on S. aureus RN4220, the growth inhibition call is “inactive”.

Consider `C[C@@H]1CCCCO[C@H](CN(C)C(=O)c2ccccc2)[C@H](C)CN([C@@H](C)CO)C(=O)c2cc(NC(=O)c3ccccc3)ccc2O1`, for which the cytotoxicity call with HSkMC and with HepG2 was “inactive” in each case. Further, the growth inhibition call in the experiment on S. aureus RN4220 was “inactive”.

For `C[C@H](CO)N1C[C@H](C)[C@H](CN(C)S(=O)(=O)c2ccc(F)cc2)Oc2ncc(C#CCN(C)C)cc2C1=O`, the cytotoxicity call with HSkMC and in the experiment with HepG2 was “inactive” in each case. Also, in the experiment on S. aureus RN4220, the growth inhibition call was “inactive”.

For `C[C@H](CO)N1C[C@H](C)[C@H](CN(C)C(=O)Nc2ccc3c(c2)OCO3)Oc2ccc(N(C)C)cc2CC1=O`, the cytotoxicity call with HSkMC and with HepG2 was “inactive” in each case. Further, in the experiment with S. aureus RN4220, the growth inhibition call was “inactive”.

For `C[C@@H]1CN([C@@H](C)CO)C(=O)c2cc(NC(=O)Nc3ccc4c(c3)OCO4)ccc2O[C@@H]1CN(C)Cc1ccc(-c2ccccc2)cc1`, the cytotoxicity call in the experiment with HSkMC was “inactive”. In addition, in the experiment on HepG2, the cytotoxicity call was “active”. Further, the growth inhibition call with S. aureus RN4220 is “inactive”.

For the compound `C[C@@H]1CCCCO[C@H](CN(C)S(=O)(=O)c2ccc(F)cc2)[C@@H](C)CN([C@@H](C)CO)C(=O)c2cc(NC(=O)C3CCCCC3)ccc2O1`, the cytotoxicity call in the experiment with HSkMC and in the experiment on HepG2 was “inactive” in each case. Besides, in the experiment on S. aureus RN4220, the growth inhibition call is “inactive”.

Regarding `COc1cccc(C#Cc2ccc3c(c2)O[C@H](CN(C)C(=O)CN2CCOCC2)[C@@H](C)CN([C@@H](C)CO)S3(=O)=O)c1`, the cytotoxicity call in the experiment with HSkMC and with HepG2 was “inactive” in each case. Further, the growth inhibition call in the experiment with S. aureus RN4220 was “inactive”.

Regarding `C[C@@H]1CN([C@H](C)CO)S(=O)(=O)c2ccc(C#C[C@@H](C)O)cc2O[C@H]1CN(C)C(=O)c1ccncc1`, the cytotoxicity call in the experiment on HSkMC and in the experiment on HepG2 was “inactive” in each case. Also, the growth inhibition call in the experiment with S. aureus RN4220 was “inactive”.

For `COc1cccc(S(=O)(=O)Nc2ccc3c(c2)C(=O)N(C)C[C@H](OC)[C@H](C)CN(C(=O)Cc2cccnc2)[C@H](C)CO3)c1`, the cytotoxicity call in the experiment with HSkMC and in the experiment on HepG2 was “inactive” in each case. The growth inhibition call with S. aureus RN4220 was “inactive”.

As to `COc1cccc(S(=O)(=O)Nc2ccc3c(c2)OC[C@@H](C)N(C(=O)Cc2cccnc2)C[C@@H](C)[C@H](OC)CN(C)C3=O)c1`, the cytotoxicity call in the experiment on HSkMC and in the experiment on HepG2 was “inactive” in each case. In the experiment on S. aureus RN4220, the growth inhibition call was “inactive”.

In the case of `O=C(C[C@@H]1C[C@H]2c3cc(NC(=O)Nc4ccc(C(F)(F)F)cc4)ccc3O[C@H]2[C@@H](CO)O1)NCCc1ccccc1`, the cytotoxicity call in the experiment on HSkMC and in the experiment with HepG2 was “inactive” throughout. The growth inhibition call in the experiment on S. aureus RN4220 is “inactive”.

For `CCS(=O)(=O)N1C[C@]2(C1)CN([C@@H](CO)c1c2c2ccc(cc2n1C)OC)S(=O)(=O)c1ccccc1`, the cytotoxicity call in the experiment with HSkMC and with HepG2 was “inactive” throughout. Also, the growth inhibition call with S. aureus RN4220 is “inactive”.

Consider `C[C@H]1CN([C@@H](C)CO)C(=O)c2cc(NC(=O)c3ccncc3)ccc2O[C@H]1CN(C)Cc1ccc2c(c1)OCO2`, for which the cytotoxicity call with HSkMC and in the experiment on HepG2 was “inactive” each time. For the same compound, the growth inhibition call in the experiment on S. aureus RN4220 was “inactive”.

For the compound `CO[C@H](CN(C)S(=O)(=O)c1cccc(Cl)c1)[C@H](C)CN([C@H](C)CO)S(=O)(=O)c1cccc(Cl)c1`, the cytotoxicity call in the experiment on HSkMC and with HepG2 was “inactive” throughout. The growth inhibition call in the experiment on S. aureus RN4220 was “inactive”.

In the case of `O=C(NCCN1CCCC1)[C@@H]1[C@@H](CO)[C@@H]2Cn3c(cccc3=O)[C@@H]2N1C(=O)c1ccccc1`, the cytotoxicity call with HSkMC and in the experiment with HepG2 was “inactive” in each case. Further, the growth inhibition call with S. aureus RN4220 was “inactive”.

As to `COc1ccc(S(=O)(=O)Nc2cccc3c2O[C@@H](CN(C)S(=O)(=O)c2c(C)noc2C)[C@@H](C)CN([C@H](C)CO)C3=O)cc1`, the cytotoxicity call in the experiment with HSkMC and in the experiment on HepG2 was “inactive” in each case. The growth inhibition call with S. aureus RN4220 was “inactive”.

In the case of `CCS(=O)(=O)Nc1ccc2c(c1)C(=O)N(C)[C@H]1CC[C@H](CC(=O)N[C@H]3CCN(Cc4ccccc4)C3)O[C@H]1CO2`, the cytotoxicity call in the experiment with HSkMC and in the experiment with HepG2 was “inactive” each time. For the same compound, the growth inhibition call in the experiment with S. aureus RN4220 was “inactive”.

As for `c1cc(-c2nnc(Cn3cncn3)[nH]2)ccn1`, the cytotoxicity call in the experiment on HSkMC (human skeletal muscle cells) and in the experiment on HepG2 was “inactive” each time. The growth inhibition call with S. aureus RN4220 is “inactive”.
